Test results taken from PubChem BioAssay AID504466 (National Center for Advancing Translational Sciences (NCATS), 2011).
In all, about 330,000 compounds went through this assay and about 4,200 (1.3%) were called active. This list was built around the results that the source calls inconclusive (neither active nor inactive); the mix of calls is not that of the screen. Calls follow the shape of the dose curve; as a rule, active = well fitted activation curve with a large enough effect; inconclusive = small, poorly fitted or top-dose-only effect; inactive = no such curve, though single readings can be large or run the other way. Potencies beside an inconclusive call are fits to weak or partial responses and may not hold up.

assay: qHTS screen for small molecules that induce genotoxicity in human embryonic kidney (HEK293T) cells expressing luciferase-tagged ELG1; conditions: HEK293T ELG1-luciferase reporter, luminescence, 16 h; series mostly up to 46 µM; activity change, positive = activation: at the top concentration; also: nearly all actives have a fitted effect of over 60% in size; as to activity change, positive = activation: % of control where 0% means no effect
How it was run: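 ELG1-luciferase HEK293T cells, 2,000/well; compound pinned in; 16 hr, 37 °C, 5% CO2; ONE-Glo, 30 min RT; luminescence on CCD imager.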
Potency is read from the fitted curve at half-maximal effect; tags tell the direction and shape of the fitted curve.

Row | Compound | activity change, positive = activation | Potency
1 | Cn1cnnc1SCC(=O)NC1CC1 | inactive: 1.8% | 
2 | COc1cccc(OCCSc2nc(N)cc(N)n2)c1 |  | inconclusive: 23.1 µM [activator, single point]
3 | CN1CCN(C(=O)c2cnn3c(C(F)(F)F)cc(-c4cccs4)nc23)CC1 | inactive: 1.82% | 
4 | COc1ccc(Cn2nnnc2C(CC(C)C)N2CCC(C(N)=O)CC2)cc1 (stereo not given) |  | inconclusive: 32.6 µM [activator, partial curve, poor fit]
5 | O=C(Nc1cccc2ccccc12)c1ccccc1 |  | inconclusive: 23.1 µM [activator, partial curve, poor fit]
6 | Cc1ccc(NC(=O)c2csc(-c3ccccc3)c2C)cc1 |  | inconclusive: 0.651 µM [activator, partial curve]
7 | C/C(=N/NC(=O)c1ccc(O)cc1)c1cccc([N+](=O)[O-])c1 |  | inconclusive: 14.6 µM [activator, partial curve, poor fit]
8 | Cc1cccc(C(=O)Oc2ccc(/C=N/O)cc2)c1 |  | inconclusive: 20.6 µM [activator, single point]
9 | COc1ccc(C(=O)/C=C\N2CCOCC2)cc1 |  | inconclusive: 17.8 µM [activator, single point]
10 | O=C(Nc1ccccc1)c1ccc(-c2ccc([N+](=O)[O-])cc2)o1 | inactive: 14.3% | 
11 | Cc1ccc(OCCN2C(=O)c3ccccc3C2=O)c(C)c1 |  | inconclusive: 20.6 µM [activator, single point]
12 | COc1ccc(C2CC(c3ccc(OC)c(OC)c3)=NN2S(C)(=O)=O)cc1 (stereo not given) |  | inconclusive: 10.3 µM [activator, partial curve]
13 | COc1ccc(/C(C)=N/NC(=O)c2nnn(-c3nonc3N)c2-c2cccs2)cc1OC |  | inconclusive: 32.6 µM [activator, partial curve, poor fit]
14 | O=C(Nc1cccc(Cl)c1)c1cccnn1 | inactive: 5.34% | 
15 | CC(C)(C)c1ccc(CS(=O)(=O)CC2(O)CCN(C(=O)c3cccc(C(F)(F)F)c3)CC2)cc1 |  | inconclusive: 16.4 µM [activator, partial curve, poor fit]
16 | COCC(C)n1c(C)cc(C(=O)CSc2nnnn2-c2ccc(O)cc2)c1C (stereo not given) | inactive: 2.69% | 
17 | CC(=O)c1ccc(-c2nnc(CCC(=O)N3CCCC(C(=O)CC(C)C)C3)o2)s1 (stereo not given) |  | inconclusive: 20.6 µM [activator, partial curve]
18 | CC1Oc2ccccc2C=C1/C=N\NC(=O)c1cccnc1 (stereo not given) |  | inconclusive: 20.6 µM [activator, partial curve, poor fit]
19 | CSc1nccc(NC(=O)c2ccc(C(C)(C)C)cc2)n1 |  | inconclusive: 18.3 µM [activator, partial curve, poor fit]
20 | COc1cccc(/C=N/N2CCN(c3ccccc3OC)CC2)c1 |  | active: 16.4 µM
21 | CC1(C)CC(=O)C(N=Nc2cc(Cl)c(Cl)c(Cl)c2)=C(O)C1 |  | inconclusive: 25.1 µM [activator, single point]
22 | CCOc1ccc(S(=O)(=O)n2cc(-c3ccc(F)cc3)c(N)n2)cc1 | inactive: -3.67% | 
23 | Cc1cc(C)nc(-n2nc(C)cc2NC(=O)c2ccc(S(=O)(=O)N3CCOCC3)cc2)n1 | inactive: -4.13% | 

Row | Compound | activity change, positive = activation | Potency
24 | Cc1ccc2nc(-c3ccc(NS(=O)(=O)c4ccc(F)c(F)c4)cc3)sc2c1 |  | inconclusive: 2.59 µM [activator, partial curve]
25 | Cc1ccc2nc(-c3cccc(S(=O)(=O)N4CC(C)OC(C)C4)c3)cn2c1 (stereo not given) |  | inconclusive: 29.1 µM [activator, partial curve, poor fit]
26 | Cc1nc([N+](=O)[O-])c(C(=O)OCc2ccccc2)n1C |  | inconclusive: 6.51 µM [activator, single point]
27 | COc1ccc2nc(NC(=O)CSc3nccc(C)n3)sc2c1 | inactive: -10.2% | 
28 | Cc1ccc(NC(=O)c2ccc(OC(=O)CCN3C(=O)c4ccccc4C3=O)cc2)cc1 |  | inconclusive: 14.6 µM [activator, partial curve]
29 | N/C(=N\OC(=O)c1ccc(F)cc1)c1cccc([N+](=O)[O-])c1 |  | inconclusive: 16.4 µM [activator, partial curve]
30 | O=C(C[n+]1ccc(C(=O)NCc2ccccc2)cc1)c1ccc(OC(F)F)cc1 | inactive: 2.82% | 
31 | Cc1ccc(C(=O)Nc2ccn(C)n2)cc1 |  | inconclusive: 23.1 µM [activator, single point]
32 | O=C1CCCCC1Sc1nnc(Nc2ccccc2)s1 (stereo not given) |  | inconclusive: 13 µM [activator, partial curve]
33 | Cc1cccc(N2CCN(C3=NC(=O)/C(=C\c4cn[nH]c4-c4ccccc4)S3)CC2)c1 | inactive: 0.552% | 
34 | Cc1cccc(-n2ncc3c(NCCCO)ncnc32)c1 |  | active: 3.66 µM
35 | O=C(NNc1nc2cc3c(cc2s1)OCCO3)c1ccccc1 |  | inconclusive: 14.6 µM [activator, partial curve]
36 | CCOC(=O)c1c(-c2ccccc2)csc1NC(=O)c1nn(CC)cc1Br | inactive: -12.7% | 
37 | Cc1cc(=O)[nH]c(N/N=C/c2cc(C)n(CC(F)(F)F)c2C)n1 |  | inconclusive: 11.6 µM [activator, partial curve, poor fit]
38 | CCOP(=O)(OCC)C(Nc1ccc(OC)cc1)c1ccco1 (stereo not given) | inactive: -11.7% | 
39 | CC(C)c1ccc(NC2=NCC(=O)N2Cc2cccs2)cc1 |  | inconclusive: 23.1 µM [activator, partial curve, poor fit]
40 | O=C(NNc1cc(N2CCOCC2)nc(N2CCOCC2)n1)c1ccc([N+](=O)[O-])cc1 | inactive: -1.72% | 
41 | CCN(CC)c1ccc(/C=C2\C(=O)c3ccc(C(=O)O)cc3C2=O)cc1 |  | inconclusive: 20.6 µM [activator, single point]
42 | CCCc1ccc2oc(C(=O)NCCc3cnn(C)c3)c(C)c2c1 |  | inconclusive: 5.8 µM [activator, partial curve]
43 | COc1ccc(C2C(C(N)=O)=C(C)Nc3nc(-c4cccc(Cl)c4)nn32)cc1OC (stereo not given) |  | inconclusive: 14.6 µM [activator, partial curve]
44 | COc1ccc(C(=O)Oc2cc(C)[nH]c(=O)c2[N+](=O)[O-])c(OC)c1 | inactive: 4.5% | 
45 | Cc1ccc(NC(=O)c2ccccc2F)cc1S(=O)(=O)N1CCCCCC1 | inactive: -8.68% | 
